# Reference: the supplement of paper PMC8728848
# This is one part of the list.
# B1: MUB40 (Lactobacillus reuteri) (peptide)
# chain: CTAEGIKKFEGDGYELFKDNFPAGEKFDNDDTNDQFYTVIF
# Key:
# Experiment in all cases: glycan array binding signal (z-score within array); higher = stronger binding
# Details in all cases: glycan notation: IUPAC condensed, linker removed
# [1] = molecular target: Gal(a1-3)Gal(b1-4)GlcNAc
# How it was run: (§1)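 The Consortium for Functional Glycomics database supplied 3228 glycan arrays, of which those lacking an available protein sequence were dropped. The binding signal, a within-array Z-score, was averaged across arrays of the same protein sequence and across linkers. Negative scores can be read as non-binding.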
# [2] = molecular target: Gal(a1-3)Gal(b1-4)GlcNAc(b1-2)Man
# How it was run: as §1
# [3] = molecular target: Gal(a1-3)Gal(b1-4)GlcNAc(b1-2)Man(a1-3)[Gal(a1-3)Gal(b1-4)GlcNAc(b1-2)Man(a1-6)]Man(b1-4)GlcNAc(b1-4)GlcNAc
# How it was run: as §1
# [4] = molecular target: Gal(a1-3)Gal(b1-4)GlcNAc(b1-3)GalNAc
# How it was run: as §1
# [5] = molecular target: Gal(a1-3)Gal(b1-4)GlcNAc(b1-6)GalNAc
# How it was run: as §1
# [6] = molecular target: Gal(a1-3)Gal(b1-4)[Fuc(a1-3)]GlcNAc
# How it was run: as §1
# [7] = molecular target: Gal(a1-3)Gal(b1-4)[Fuc(a1-3)]GlcNAc(b1-2)Man(a1-3)[Gal(a1-3)Gal(b1-4)[Fuc(a1-3)]GlcNAc(b1-2)Man(a1-6)]Man(b1-4)GlcNAc(b1-4)GlcNAc
# How it was run: as §1
# [8] = molecular target: Gal(a1-3)GalNAc
# How it was run: as §1
# [9] = molecular target: Gal(a1-3)[Gal(a1-4)]Gal(b1-4)GlcNAc
# How it was run: as §1
# [10] = molecular target: Gal(a1-4)Gal(b1-3)GlcNAc(b1-2)Man(a1-3)[Gal(a1-4)Gal(b1-3)GlcNAc(b1-2)Man(a1-6)]Man(b1-4)GlcNAc(b1-4)GlcNAc
# How it was run: as §1
# [11] = molecular target: Gal(a1-4)Gal(b1-4)Glc
# How it was run: as §1
# [12] = molecular target: Gal(a1-4)Gal(b1-4)GlcNAc
# How it was run: as §1
# [13] = molecular target: Gal(a1-4)Gal(b1-4)GlcNAc(b1-2)Man(a1-3)[Gal(a1-4)Gal(b1-4)GlcNAc(b1-2)Man(a1-6)]Man(b1-4)GlcNAc(b1-4)GlcNAc
# How it was run: as §1
# [14] = molecular target: Gal(a1-4)Gal(b1-4)GlcNAc(b1-3)Gal(b1-4)Glc
# How it was run: as §1
# [15] = molecular target: Gal(a1-4)GlcNAc
# How it was run: as §1
# [16] = molecular target: Gal(a1-6)Glc
# How it was run: as §1
# [17] = molecular target: Gal(b1-2)Gal
# How it was run: as §1
# [18] = molecular target: Gal(b1-3)Gal
# How it was run: as §1
# [19] = molecular target: Gal(b1-3)Gal(b1-4)GlcNAc
# How it was run: as §1
# [20] = molecular target: Gal(b1-3)GalNAc
# How it was run: as §1
# [21] = molecular target: Gal(b1-3)GalNAc(a1-3)[Fuc(a1-2)]Gal(b1-4)Glc
# How it was run: as §1
# [22] = molecular target: Gal(b1-3)GalNAc(a1-3)[Fuc(a1-2)]Gal(b1-4)GlcNAc
# How it was run: as §1
# [23] = molecular target: Gal(b1-3)GalNAc(b1-3)Gal
# How it was run: as §1
# [24] = molecular target: Gal(b1-3)GalNAc(b1-3)Gal(a1-4)Gal(b1-4)Glc
# How it was run: as §1
# [25] = molecular target: Gal(b1-3)GalNAc(b1-4)Gal(b1-4)Glc
# How it was run: as §1
# [26] = molecular target: Gal(b1-3)GalNAc(b1-4)[Neu5Ac(a2-3)]Gal(b1-4)Glc
# How it was run: as §1
# [27] = molecular target: Gal(b1-3)GlcNAc
# How it was run: as §1
# [28] = molecular target: Gal(b1-3)GlcNAc(a1-3)Gal(b1-4)GlcNAc
# How it was run: as §1
# [29] = molecular target: Gal(b1-3)GlcNAc(a1-6)Gal(b1-4)GlcNAc
# How it was run: as §1
# [30] = molecular target: Gal(b1-3)GlcNAc(b1-2)Man
# How it was run: as §1
# [31] = molecular target: Gal(b1-3)GlcNAc(b1-2)Man(a1-3)[Gal(b1-3)GlcNAc(b1-2)Man(a1-6)]Man(b1-4)GlcNAc(b1-4)GlcNAc
# How it was run: as §1
# [32] = molecular target: Gal(b1-3)GlcNAc(b1-2)Man(a1-3)[Gal(b1-3)GlcNAc(b1-2)Man(a1-6)]Man(b1-4)GlcNAc(b1-4)[Fuc(a1-6)]GlcNAc
# How it was run: as §1
# [33] = molecular target: Gal(b1-3)GlcNAc(b1-2)Man(a1-3)[GlcNAc(b1-4)][Gal(b1-3)GlcNAc(b1-2)Man(a1-6)]Man(b1-4)GlcNAc(b1-4)GlcNAc
# How it was run: as §1
# [34] = molecular target: Gal(b1-3)GlcNAc(b1-2)[Gal(b1-3)GlcNAc(b1-6)]Man(a1-6)[Gal(b1-3)GlcNAc(b1-2)Man(a1-3)]Man(b1-4)GlcNAc(b1-4)GlcNAc
# How it was run: as §1
# [35] = molecular target: Gal(b1-3)GlcNAc(b1-3)Gal(b1-3)GlcNAc
# How it was run: as §1
# [36] = molecular target: Gal(b1-3)GlcNAc(b1-3)Gal(b1-4)Glc
# How it was run: as §1
# [37] = molecular target: Gal(b1-3)GlcNAc(b1-3)Gal(b1-4)GlcNAc
# How it was run: as §1
# [38] = molecular target: Gal(b1-3)GlcNAc(b1-3)Gal(b1-4)GlcNAc(b1-2)Man(a1-3)[Gal(b1-3)GlcNAc(b1-3)Gal(b1-4)GlcNAc(b1-2)Man(a1-6)]Man(b1-4)GlcNAc(b1-4)GlcNAc
# How it was run: as §1
# [39] = molecular target: Gal(b1-3)GlcNAc(b1-3)Gal(b1-4)GlcNAc(b1-2)[Gal(b1-3)GlcNAc(b1-3)Gal(b1-4)GlcNAc(b1-6)]Man(a1-6)[Gal(b1-3)GlcNAc(b1-3)Gal(b1-4)GlcNAc(b1-2)Man(a1-3)]Man(b1-4)GlcNAc(b1-4)[Fuc(a1-6)]GlcNAc
# How it was run: as §1
# [40] = molecular target: Gal(b1-3)GlcNAc(b1-3)Gal(b1-4)GlcNAc(b1-3)Gal(b1-4)GlcNAc(b1-2)[Gal(b1-3)GlcNAc(b1-3)Gal(b1-4)GlcNAc(b1-3)Gal(b1-4)GlcNAc(b1-6)]Man(a1-6)[Gal(b1-3)GlcNAc(b1-3)Gal(b1-4)GlcNAc(b1-3)Gal(b1-4)GlcNAc(b1-2)Man(a1-3)]Man(b1-4)GlcNAc(b1-4)[Fuc(a1-6)]GlcNAc
# How it was run: as §1
# [41] = molecular target: Gal(b1-3)GlcNAc(b1-3)Gal(b1-4)GlcNAc(b1-6)[Gal(b1-3)GlcNAc(b1-3)]Gal(b1-4)Glc
# How it was run: as §1
# [42] = molecular target: Gal(b1-3)GlcNAc(b1-3)Gal(b1-4)[Fuc(a1-3)]GlcNAc
# How it was run: as §1
# [43] = molecular target: Gal(b1-3)GlcNAc(b1-3)Gal(b1-4)[Fuc(a1-3)]GlcNAc(b1-6)[Gal(b1-3)GlcNAc(b1-3)]Gal(b1-4)Glc
# How it was run: as §1
# [44] = molecular target: Gal(b1-3)GlcNAc(b1-3)GalNAc
# How it was run: as §1
# [45] = molecular target: Gal(b1-3)GlcNAc(b1-6)Gal(b1-4)GlcNAc
# How it was run: as §1
binder,measurement,setting,value
B1,glycan array binding signal (z-score),[1],-0.379
same,glycan array binding signal (z-score),[2],-0.132
same,glycan array binding signal (z-score),[3],-0.317
same,glycan array binding signal (z-score),[4],0.632
same,glycan array binding signal (z-score),[5],-0.053
same,glycan array binding signal (z-score),[6],0.133
same,glycan array binding signal (z-score),[7],0.495
same,glycan array binding signal (z-score),[8],-0.413
same,glycan array binding signal (z-score),[9],0.029
same,glycan array binding signal (z-score),[10],0.84
same,glycan array binding signal (z-score),[11],-0.569
same,glycan array binding signal (z-score),[12],-0.359
same,glycan array binding signal (z-score),[13],-0.149
same,glycan array binding signal (z-score),[14],-0.561
same,glycan array binding signal (z-score),[15],-0.373
same,glycan array binding signal (z-score),[16],0.029
same,glycan array binding signal (z-score),[17],-0.494
same,glycan array binding signal (z-score),[18],-0.076
same,glycan array binding signal (z-score),[19],-0.269
same,glycan array binding signal (z-score),[20],-0.387
same,glycan array binding signal (z-score),[21],-0.209
same,glycan array binding signal (z-score),[22],0.081
same,glycan array binding signal (z-score),[23],0.234
same,glycan array binding signal (z-score),[24],-0.491
same,glycan array binding signal (z-score),[25],-0.403
same,glycan array binding signal (z-score),[26],-0.254
same,glycan array binding signal (z-score),[27],-0.282
same,glycan array binding signal (z-score),[28],-0.749
same,glycan array binding signal (z-score),[29],-0.32
same,glycan array binding signal (z-score),[30],-0.187
same,glycan array binding signal (z-score),[31],-0.46
same,glycan array binding signal (z-score),[32],0.158
same,glycan array binding signal (z-score),[33],1.03
same,glycan array binding signal (z-score),[34],-0.593
same,glycan array binding signal (z-score),[35],-0.49
same,glycan array binding signal (z-score),[36],-0.282
same,glycan array binding signal (z-score),[37],-0.012
same,glycan array binding signal (z-score),[38],4.29
same,glycan array binding signal (z-score),[39],0.063
same,glycan array binding signal (z-score),[40],-0.204
same,glycan array binding signal (z-score),[41],-0.311
same,glycan array binding signal (z-score),[42],-0.331
same,glycan array binding signal (z-score),[43],0.154
same,glycan array binding signal (z-score),[44],0.226
same,glycan array binding signal (z-score),[45],-0.209
